From PubChem BioAssay (Tox21)
Where “and” joins values, the source holds several entries; their conditions need not be identical. Equal entries are not always repeated. Inconclusive means that the source gave no clear call. Such entries were picked first, then a sample of the others. Potencies of inconclusive entries are doubtful fits and often do not repeat. Some structures have more than one record in an assay (separate samples or runs), and their calls can disagree. Calls of active or inactive are those of the source. Calls come from the whole dose curve; as a rule, active = well fitted cell-killing curve with a large enough effect in the repeat runs; inconclusive = weak or mixed curves, or effect the other way; inactive = flat fitted curve, though single readings scatter.
% is set by controls: 0 for no effect and ±100 for the full control effect; potency is the fitted concentration of half-maximal effect; tags give direction and shape of the fitted curve.

Test: cAMP Responsive Elements (CRE) small molecule antagonists, cell-based qHTS assay: qHTS cell viability counter screen (AID 2060913); note: nearly all actives have a fitted effect of over 40% in size
Settings: CRE-bla HEK293T viability, CellTiter-Glo luminescence, 5 h; series mostly up to 92.4 µM; viability change, negative = cytotoxic: at the top concentration
Outline: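 Viability of NKH477-stimulated (0.25 uM final) CRE-bla HEK293T cells is measured by CellTiter-Glo luminescence following 3 hrs compound exposure at 37 C.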
With Cc1oc(-c2ccccc2)nc1CCOc1ccc(C[C@H](Nc2ccccc2C(=O)c2ccccc2)C(=O)O)cc1 the Potency was inconclusive: 61.1 µM [cytotoxic, single point].
In the case of C/C=C/C(=O)Oc1c(CCCCCC(C)C)cc([N+](=O)[O-])cc1[N+](=O)[O-], the Potency is reported as inconclusive: 6.86 µM [cytotoxic, partial curve, poor fit].
With O=C(N[C@@H](c1ccccc1)[C@@H]1CCCCN1)c1cccc(C(F)(F)F)c1Cl the Potency was inconclusive: 61.1 µM [cytotoxic, partial curve, poor fit].
With Cc1ccc(C(C)(C)C)c(O)c1 the Potency was inconclusive: 68.6 µM [cytotoxic, partial curve, poor fit].
For O=[N+]([O-])c1ccc(O/N=C/c2cc(Br)c(O)c(Br)c2)c([N+](=O)[O-])c1, the Potency was inconclusive: 24.2 µM [cytotoxic, single point].
For CCCCCCC(C)OC(=O)COc1nc(F)c(Cl)c(N)c1Cl (centres undefined), the Potency was inconclusive: 77 µM [cytotoxic, partial curve, poor fit].
For CCC(C)n1ncn(-c2ccc(N3CCN(c4ccc(OC[C@H]5CO[C@](Cn6cncn6)(c6ccc(Cl)cc6Cl)O5)cc4)CC3)cc2)c1=O (some centres undefined), the Potency was inconclusive: 5.96 µM [cytotoxic, full curve, poor fit].
In the case of CC(C)C(=O)Nc1ccc([N+](=O)[O-])c(C(F)(F)F)c1, the Potency is reported as inconclusive: 28.1 µM [cytotoxic, full curve, poor fit].
In the case of c1ccc2c(c1)CCCC2C1=NCCN1 (centres undefined), the Potency is reported as inconclusive: 33.5 µM [cytotoxic, single point].
With Nc1ccc(O)c([N+](=O)[O-])c1 the Potency was inconclusive: 24.3 µM [rising, full curve, poor fit].
For Nc1ccnc(=O)[nH]1, the “viability change, negative = cytotoxic” value was inactive: -6.76%.
With Oc1cc(Cl)cc(Cl)c1Cl the Potency was active: 55.8 µM.
For C=C(C)C(=O)OC, the “viability change, negative = cytotoxic” value was inactive: 0.0872%.
For CCCNCC(O)COc1ccccc1C(=O)CCc1ccccc1 (centres undefined), the Potency was inconclusive: 0.0015 µM [rising, full curve, poor fit].
For Cc1cc(O)c(C(C)C)cc1Cl, the Potency was inconclusive: 61.1 µM [cytotoxic].
For CCOC(=O)[C@@](C)(N)Cc1ccc(O)c(O)c1, the “viability change, negative = cytotoxic” value was inactive: 0.413% [at 42.5 µM].
With CCCCOc1ccc(N)cc1 the “viability change, negative = cytotoxic” value was inactive: -14.3%.
For CCc1nc(N)nc(N)c1-c1ccc(Cl)cc1, the Potency was inconclusive: 54.5 µM [cytotoxic, partial curve, poor fit].
For CCC(Cl)CC(Cl)C(Cl)C(Cl)C(Cl)C(C)Cl (centres undefined), the viability change, negative = cytotoxic was inactive: -10.4% [at 18.9 µM].
For NS(=O)(=O)c1cc2c(cc1Cl)CN(C1CCCCC1)C2=O, the “viability change, negative = cytotoxic” value was inactive: -1.46% [at 42.5 µM].
In the case of O=c1cc(-c2ccccc2)oc2ccccc12, the Potency is reported as inconclusive: 76.5 µM [rising, partial curve, poor fit].
For Cc1c(C(=O)O)c(O)cc2c1C(=O)c1c(O)c([C@@H]3O[C@H](CO)[C@@H](O)[C@H](O)[C@H]3O)c(O)c(O)c1C2=O, the Potency was inconclusive: 75.1 µM [cytotoxic, partial curve, poor fit].
For CCCCCCOC(=O)C(C)C, the Potency was inconclusive: 22.7 µM [rising, partial curve].
With OCc1c[nH]c2ccccc12 the “viability change, negative = cytotoxic” value was inactive: 6.95%.
For NC(=NCCCCCCN=C(N)/N=C(\N)Nc1ccc(Cl)cc1)/N=C(\N)Nc1ccc(Cl)cc1, the Potency was inconclusive: 60.9 µM [cytotoxic, single point] and inconclusive: 58 µM [cytotoxic, single point].
With CCN(CC)C(=O)c1cc(S(=O)(=O)Cc2ccccc2)c(N2CCC(c3ccccc3)CC2)cc1N(CC)CCN(C)C the Potency was inconclusive: 20 µM [cytotoxic, partial curve, poor fit].
With CC(=O)OC/C=C(\C)CCC=C(C)C the Potency was inconclusive: 0.243 µM [cytotoxic, single point].
With CCCCCCOc1cc(C)c(O)c(C)c1C the Potency was active: 55.1 µM.
For Cc1nccn1-c1ccc(Sc2cccc(C3(C(N)=O)CCOCC3)c2)cc1, the Potency was inconclusive: 34.4 µM [cytotoxic, partial curve, poor fit].
In the case of CN(C)C(=O)COC(=O)Cc1ccc(OC(=O)c2ccc(N=C(N)N)cc2)cc1, the “viability change, negative = cytotoxic” value is reported as inactive: 0% [at 42.5 µM].
For CC(C)OC(=O)c1ccccc1C(=O)OC(C)C, the “viability change, negative = cytotoxic” value was inactive: -3.88%.
For CCN(CC)c1ccc(C=O)cc1, the “viability change, negative = cytotoxic” value was inactive: -1.65%.
With CC(COC(=O)c1ccccc1)OC(=O)c1ccccc1 (centres undefined) the “viability change, negative = cytotoxic” value was inactive: -3.79%.
With CO[C@]1(NC(=O)CSC(F)F)C(=O)N2C(C(=O)O)=C(CSc3nnnn3CCO)CO[C@H]21 the “viability change, negative = cytotoxic” value was inactive: 0.732% [at 42.5 µM].
For N[C@H](C(=O)O)c1ccc(O)cc1, the viability change, negative = cytotoxic was inactive: 2.5% [at 18.9 µM].
For NNC(=O)c1cccc(C(=O)NN)c1, the “viability change, negative = cytotoxic” value was inactive: -3.25%.
In the case of C=CCCCCCCCCCCCC, the Potency is reported as inconclusive: 25.4 µM [cytotoxic, full curve, poor fit].
In the case of C=CC(C)(CCC=C(C)C)OC=O (centres undefined), the “viability change, negative = cytotoxic” value is reported as inactive: -1.4%.
With COC(=O)[C@]1(C)CCC[C@@]2(C)[C@H]1CC=C1C=C(C(C)C)CC[C@@H]12 the Potency was inconclusive: 1.28 µM [cytotoxic, single point].
